# Source: ChEMBL document CHEMBL4888484, “Replenishing the malaria drug discovery pipeline: Screening and hit evaluation of the MMV Hit Generation Library 1 (HGL1) against asexual blood stage Plasmodium falciparum ,using a nano luciferase reporter read-out” (2022)
# The whole screen tested about 150,000 compounds, of which about 540 (0.36%) showed an effect of 50% or more. This is one part of the list.
# Test system: Plasmodium falciparum
# Assay: Primary screen in NF54 nanoGlo assay, in single point, at 2uM, 72h; a lower Z score goes with more inhibition
# Assay type: functional, Erythrocyte
# Conditions: timepoint 72 hour
Structure (SMILES),% Inhibition [%],Z score
CCN(CC)C(=O)c1ccc(Br)cc1F,-6,0.94
CCN(C(=O)COc1cccc(C)c1)[C@H](c1ccc(C)cc1)c1c[nH]c2ccccc12,6,-0.77
CC(C)NC(=O)CNC(=O)Cc1cc(Cl)ccc1Cl,-1,0.11
CC1C(C)S(=O)(=O)CCN1C(=O)c1cccc(C(F)(F)F)c1 (stereo not drawn),-11,1.14
Cc1nc(Nc2ccccn2)sc1C(=O)NC1CCC(C)CC1 (stereo not drawn),-5,0.75
O=C(O)c1ccccc1-c1nccc(C2CCCC2)n1,-11,2.1
CO[C@H]1CCOC[C@@H]1NC(=O)C1Cc2ccccc2C1,-8,1.58
Cc1noc(C)c1CCC(=O)Nc1nc2ccccc2s1,-9,1.29
Cc1cnc(CN2CCCC[C@H]2C(=O)NCC(F)F)s1,4,-0.68
CN(CCO)S(=O)(=O)c1cnc(NCCO)c(C(F)(F)F)c1,-1,0.11
CCO[C@H]1CN(C)C[C@@H]1n1cnc2cccc(Cl)c2c1=O,4,-0.67
CC1CCC(NC(=O)Nc2cccc(-c3nnco3)c2)CC1 (stereo not drawn),-13,1.21
COc1cccc(OCc2nc(CCN)n(C(C)(C)C)n2)c1,-16,1.41
Cc1cc(C)n(CCN2CCCN(C(=O)c3cc(-c4ccccc4)n[nH]3)CC2)n1,-8,1.48
CCc1nn(C)cc1NC(=O)N(C)[C@@H](C)c1ccco1,-7,1.1
COC(=O)Nc1cccc(OS(=O)(=O)c2cccnc2)c1,-5,0.68
COCCN1CCCC(NC(C)c2ccc(OC)c(F)c2)C1 (stereo not drawn),-3,0.37
O=C(c1ccc(Oc2ccccc2)cc1)[C@H]1CCCN(C(=O)CCc2cccnc2)C1,-7,0.95
CCc1nc(C)sc1C(=O)NCc1cc2n(n1)CCNC2,-10,0.95
CCCc1nnc2c(=O)n(CC(=O)Nc3cc(C)ccc3OC)c3ccccc3n12,-2,0.36
Cc1ccc(C(=O)NC2CC3CCC2C3)c(C2CCN(C(=O)c3cccc(Br)c3)CC2)n1 (stereo not drawn),-9,1.28
CCOc1ccc(NC(=O)CNC(=O)c2cn(-c3ccccc3OC)c(=O)c3ccccc23)cc1,-1,0.09
C=C(C)CNc1ccccc1Br,-10,1.47
O=C(CCC(F)(F)F)N1CCO[C@@H](CC(c2ccccc2)c2ccccc2)C1,-10,1.2
